{"source": "PubChem BioAssay AID504832", "about": "(National Center for Advancing Translational Sciences (NCATS), 2011)", "note": "In all, about 310,000 compounds went through this assay and about 18,000 (5.8%) were called active. Inconclusive means that the source gave no clear call. Such entries were picked first, then a sample of the others. Calls follow the shape of the dose curve; as a rule, active = well fitted inhibition curve with a large enough effect; inconclusive = small, poorly fitted or top-dose-only effect, or another doubt; inactive = no such curve, though single readings can be large or run the other way. Potencies of inconclusive entries are left out as doubtful fits. Potency is read from the fitted curve at half-maximal effect; tags tell the direction and shape of the fitted curve."}
{"test": "Primary qHTS for delayed death inhibitors of the malarial parasite plastid, 48 hour incubation", "conditions": "P. falciparum luciferase growth in erythrocytes; series mostly up to 28.7 µM", "method_in_brief": "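Cell-based growth assay: transgenic P. falciparum expressing firefly luciferase, cultured in red cells within RPMI 1640 containing 0.5% w/v Albumax, 24 mM bicarbonate and gentamycin. A drop in luciferase activity indicates inhibition.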"}
{"smiles": "O=C(c1ccccc1)N1N=C(c2ccccc2)CC1c1ccc2nccnc2c1", "note": "(centres undefined)", "Potency": "active: 9.28 µM"}
{"smiles": "O=C(NCc1ccc2c(c1)OCO2)Nc1ccc([N+](=O)[O-])cc1", "Potency": "inconclusive [inhibitor, single point]"}
{"smiles": "COc1cc(NC(=O)c2ccnnc2)cc(C(=O)Nc2cccc(C(F)(F)F)c2)c1", "Potency": "active: 9.28 µM"}
{"smiles": "CC(C)CCn1c(=O)c2sccc2n2c(CCCC(=O)N3CCN(c4ccccn4)CC3)nnc12", "Potency": "inconclusive [inhibitor, partial curve]"}
{"smiles": "COc1cccc(/C=C/c2nc(S(=O)(=O)c3ccccc3)c(N(C)C)o2)c1", "Potency": "active: 10.4 µM"}
{"smiles": "CN1C(=O)CC(C(=O)Nc2ccccc2F)SC1=Nc1ccc2c(c1)OCO2", "note": "(centres undefined)", "Potency": "inconclusive [inhibitor, partial curve, poor fit]"}
{"smiles": "CCOc1ccccc1N1C(=O)NC(=O)/C(=C/c2ccc3c4c(cccc24)CC3)C1=O", "Potency": "inactive"}
{"smiles": "COc1ccccc1C(c1nnnn1Cc1ccccc1)N1CCN(c2nc3ccccc3s2)CC1", "note": "(centres undefined)", "Potency": "active: 3.29 µM"}
{"smiles": "CC1CCN(S(=O)(=O)c2ccc(C(=O)Nc3nnc(C4=COCCO4)o3)cc2)CC1", "Potency": "inconclusive [inhibitor, single point]"}
{"smiles": "COc1ccc2c3c(c(=O)oc2c1OCC(=O)C(C)(C)C)CCCC3", "Potency": "inconclusive [inhibitor, single point]"}
{"smiles": "CCCOc1ccc(C2NC(=S)NC(c3ccccc3)=C2C(=O)Nc2ccc(C)cc2)cc1OC", "note": "(centres undefined)", "Potency": "active: 2.62 µM"}
{"smiles": "O=C1CSC(=Nc2ccccc2[N+](=O)[O-])N1", "Potency": "inactive"}
{"smiles": "CCN1C(=O)[C@@H]2Cc3c([nH]c4ccccc34)C(c3cc(OC)c(OC)c(OC)c3)N2C1=S", "note": "(some centres undefined)", "Potency": "inconclusive [inhibitor, single point]"}
{"smiles": "O=c1oc2cc(O)ccc2cc1-c1ccccc1", "Potency": "inactive"}
{"smiles": "O=C(NCc1ccccn1)c1ccco1", "Potency": "inactive"}
{"smiles": "COc1ccc(NS(=O)(=O)c2ccc(Oc3c(C#N)cccc3C#N)cc2)cc1", "Potency": "inconclusive [inhibitor, single point]"}
{"smiles": "CC1(C)CC(N2CCCCC2)=CC(=[N+]2CCCCC2)C1", "Potency": "inconclusive [inhibitor, partial curve, poor fit]"}
{"smiles": "Cc1ccccc1NC(=O)c1ccc(Nc2c([N+](=O)[O-])cc([N+](=O)[O-])c3ccccc23)cc1", "Potency": "inconclusive [inhibitor, partial curve]"}
{"smiles": "CC(C)(C)c1ccc(C(=O)NCc2nnc(SCC(=O)NCc3ccco3)o2)cc1", "Potency": "inconclusive [inhibitor, single point]"}
{"smiles": "CCOC(=O)CC(NC(=O)c1cccc2c1C(=O)N(Cc1cccnc1)C2)c1ccc(OCC)c(OC)c1", "note": "(centres undefined)", "Potency": "inconclusive [inhibitor, partial curve]"}
{"smiles": "CCc1ccc2nc(Nc3nc(COC)cc(=O)[nH]3)nc(C)c2c1", "Potency": "inconclusive [inhibitor, single point]"}
{"smiles": "COc1cc(C2NC(=O)CCC2[N+](=O)[O-])c(OC)cc1Br", "note": "(centres undefined)", "Potency": "inactive"}
{"smiles": "COc1cc(C(=O)N(C)c2nnc(-c3cccnc3)s2)cc(OC)c1OC", "Potency": "inactive"}
{"smiles": "O=C(NCC(c1ccco1)N1CCc2ccccc21)C(=O)Nc1ccccc1", "note": "(centres undefined)", "Potency": "active: 1.31 µM"}
{"smiles": "COc1ccc(Cc2c3cc(OC)c(OC)cc3cc[n+]2C)cc1OC", "Potency": "inconclusive [inhibitor, partial curve]"}
{"smiles": "CC/C(=N/Nc1cccc(C)c1)c1cnnc(SC)n1", "Potency": "inconclusive [inhibitor, single point]"}
{"smiles": "CCn1c2ccccc2c2cc(CN3CCN(S(C)(=O)=O)CC3)ccc21", "Potency": "inconclusive [inhibitor, partial curve]"}
{"smiles": "CC(C)C(=O)N1CCc2cc(-c3csc(N)n3)ccc21", "Potency": "active: 10.4 µM"}
{"smiles": "CCOc1ccccc1OCCCC(=O)Nc1ccc(Cl)c(S(=O)(=O)N2CCOCC2)c1", "Potency": "active: 9.28 µM"}
{"smiles": "CC(C)c1ccc(C(O)c2nc3ccccc3n2C)cc1", "note": "(centres undefined)", "Potency": "inconclusive [inhibitor, partial curve]"}
{"smiles": "COc1ccc2nc(SCC(=O)Nc3ccc4sc(C)nc4c3)c(C#N)cc2c1", "Potency": "inconclusive [inhibitor, partial curve]"}
{"smiles": "COc1ccc(OCC(=O)Nc2sc3c(c2C(=O)NCC2CCCO2)CCC3)cc1", "note": "(centres undefined)", "Potency": "inconclusive [inhibitor, partial curve]"}
{"smiles": "COc1ccc(Cl)cc1NC(=O)CN(C)C(=O)c1ccc(-n2nc(C)cc2C)cc1", "Potency": "inconclusive [inhibitor, partial curve, poor fit]"}
{"smiles": "OC[C@@H]1CCCN1Cc1nc(-c2cccs2)no1", "Potency": "inactive"}
{"smiles": "COc1ccc(C)cc1NC(=O)CN1C(=O)COc2ccc(S(=O)(=O)N3CCC(C)CC3)cc21", "Potency": "inconclusive [inhibitor, single point]"}
{"smiles": "Cn1cc(CNC(=O)c2cc(-c3ccccc3)nc3ccc(Br)cc23)cn1", "Potency": "active: 13.1 µM"}
{"smiles": "O=C(Nc1ccc(F)cc1)N(Cc1ccco1)Cc1cc2cc3c(cc2[nH]c1=O)OCO3", "Potency": "active: 10.4 µM"}
{"smiles": "COc1ccccc1CN(Cc1cc2cc(C)cc(C)c2[nH]c1=O)Cc1nnnn1CC1CCCO1", "note": "(centres undefined)", "Potency": "inconclusive [inhibitor, partial curve, poor fit]"}
{"smiles": "CCCc1[nH]nc2c1C(C1CC=CCC1)C(C#N)=C(N)O2", "note": "(centres undefined)", "Potency": "inconclusive [inhibitor, partial curve, poor fit]"}
{"smiles": "O=C(NCCN1CCOCC1)c1cccnc1SCc1ccccc1Cl", "Potency": "inconclusive [inhibitor, partial curve]"}
{"smiles": "COc1ccc2cc(C(c3nnnn3Cc3ccc(F)cc3)N3CCCCCC3)c(=O)[nH]c2c1", "note": "(centres undefined)", "Potency": "active: 11.7 µM"}
{"smiles": "COc1cc(NS(=O)(=O)c2ccc(C)cc2C)cc(OC)c1OC", "Potency": "active: 6.57 µM"}
{"smiles": "CN1/C(=c2/s/c(=C3/C(=O)N(c4ccccc4)NC3=Nc3ccccc3)n(C)c2=O)C(C)(C)c2ccccc21", "Potency": "active: 13.1 µM"}
{"smiles": "COc1ccc(CN(C)C(=O)C(Cc2ccccc2)NC(=O)c2ccccc2)cc1F", "note": "(centres undefined)", "Potency": "inconclusive [inhibitor, full curve, poor fit]"}
{"smiles": "CC(=O)c1ccccc1C(=O)N1CCC(n2nccc2NC(=O)C2CC2)CC1", "Potency": "inactive"}
{"smiles": "CN(C)c1cccc(/C=C(\\C#N)c2ccccc2)c1", "Potency": "inactive"}
{"smiles": "Cc1ccccc1NC(=O)CSc1nnc(NC(=O)c2ccco2)s1", "Potency": "inactive"}
{"smiles": "CCOc1ccc(N(CC(=O)Nc2ccc(OC)cc2OC)S(=O)(=O)c2c(C)[nH]c(=O)[nH]c2=O)cc1", "Potency": "inconclusive [inhibitor, partial curve, poor fit]"}
{"smiles": "O=C(NCC1CCCO1)c1cc(-c2ccccc2)nc2ccccc12", "note": "(centres undefined)", "Potency": "inactive"}
{"smiles": "CCOc1ccc(Oc2nc(Nc3ccc(C)cc3)nc(N(C)C)n2)nn1", "Potency": "inactive"}
{"smiles": "O=C(c1nn2c(C(F)(F)F)cc(-c3ccccc3)nc2c1Cl)N1CCOCC1", "Potency": "inconclusive [inhibitor, partial curve]"}
{"smiles": "COCCC(C(=O)Oc1c(C(C)(C)C)cc(C)cc1C(C)(C)C)c1ccccc1", "note": "(centres undefined)", "Potency": "active: 8.28 µM"}
{"smiles": "CC(C)(C)C(=O)Nc1ccc(C(=O)Nc2cc(NC(=O)c3ccc(NC(=O)C(C)(C)C)cc3)cc(C(=O)O)c2)cc1", "Potency": "inconclusive [inhibitor, partial curve, poor fit]"}
{"smiles": "O=C(O)c1nn2cc(CCO)cnc2c1Cl", "Potency": "inconclusive [inhibitor, partial curve]"}
{"smiles": "O=C(CCOc1ccccc1)Nc1ccc(Br)cc1", "Potency": "inactive"}
{"smiles": "CCCCOc1ccc(-c2nnn(CC(=O)Nc3ncc(CC(=O)OCC)s3)n2)cc1", "Potency": "inconclusive [inhibitor, single point]"}
{"smiles": "Cc1ccn2cc(-c3cccc([N+](=O)[O-])c3)nc2c1", "Potency": "inactive"}
{"smiles": "Cc1cc(C)c(C)c(S(=O)(=O)N2CCC(C(=O)Nc3ccncc3)CC2)c1C", "Potency": "inconclusive [inhibitor, partial curve]"}
{"smiles": "CCN1CCN(C(c2cc3cc4c(cc3[nH]c2=O)OCO4)c2nnnn2C(C)(C)CC)CC1", "note": "(centres undefined)", "Potency": "inconclusive [inhibitor, full curve, poor fit]"}
{"smiles": "Cc1ccc(C(=O)c2c3ccccc3[n+]([O-])n2[C@@H](C)C(N)=O)cc1", "Potency": "inconclusive [inhibitor, single point]"}
{"smiles": "Cc1ccc(OCCCC(=O)Nc2cc(Cl)ccc2-n2cncn2)cc1", "Potency": "inconclusive [inhibitor, single point]"}
{"smiles": "O=S(=O)(Nc1ncccn1)c1ccc(-n2cnnn2)cc1", "Potency": "inactive"}
{"smiles": "Cc1ccc(/C=C2/SC(=O)NC2=S)o1", "Potency": "inactive"}
{"smiles": "COc1ccc(F)cc1C(=O)C1CCCN(Cc2c[nH]c3ccccc23)C1", "note": "(centres undefined)", "Potency": "inconclusive [inhibitor, single point]"}
{"smiles": "CCCCc1ccc(NC(=O)CSC2=C(C#N)C(c3ccco3)C3=C(CCCC3=O)N2)cc1", "note": "(centres undefined)", "Potency": "active: 1.85 µM"}
{"smiles": "c1ccc(CC(Nc2ccccn2)c2ccccc2)cc1", "note": "(centres undefined)", "Potency": "inconclusive [inhibitor, partial curve, poor fit]"}
{"smiles": "Cc1ccc2c(C)cc(=S)[nH]c2c1", "Potency": "inconclusive [inhibitor, full curve, poor fit]"}
{"smiles": "Cc1nn(-c2ncc(C(F)(F)F)cc2Cl)c(=O)n1-c1c(F)cccc1F", "Potency": "inconclusive [inhibitor, partial curve, poor fit]"}
{"smiles": "CCCCOc1ccc(S(=O)(=O)NNC(=O)C2Cc3c(ccc4ccccc34)O2)cc1", "note": "(centres undefined)", "Potency": "inconclusive [inhibitor, partial curve]"}
